# According to the supplement of paper PMC11417369:
# The other results are listed elsewhere or left out.
# Tested on: PfAP2-HC AP2 domain (GST-tagged)
# Test: gcPBM binding intensity (ln(normalized median fluorescence intensity)); higher = stronger DNA binding
# In short: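 The binding buffer was 1× PBS containing 1% milk, 0.2 mg/ml BSA, 0.5% salmon testes DNA and 0.03% Triton X-100. In it, GST-tagged P. falciparum DNA-binding domains expressed in E. coli were applied for 1 h to an Agilent 4 × 180k array of primer-extended double-stranded 36-bp intergenic genomic probes plus negative controls. Binding intensity, read with Alexa488 anti-GST antibody and a 488 nm scan, is the highest Masliner-normalised natural-log median intensity across replicate spots of either probe orientation.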
row,Sequence,gcPBM binding intensity (ln)
1,GATTATCTTCAAGTATGTACACACTATATATAATAA [XGTACX_site5108],9.68
2,AATAAATAGAGGAAATGTACATATAAAAATAATTTC [XGTACX_site2454],10
3,TTAACATCTTCGTTGACACACAAAAAAAAAAATAAT [CACACA_site1819],9.65
4,TACACAAACAGACACACACACACACGCGCACAAAAA [CACACA_site7192],11
5,ATTACATGTATACATGTCAACACGTATAAAAAAAAA [CACACA_negctrl_site1154],9.7
6,ATTATAAATATATTTTGTACTTAAAAGGAAAAAAAA [XGTACX_site55],9.47
7,AATAAGCATAGACACACACACAAAAAAAAAAAAAAA [CACACA_site6476],10.1
8,ATATAACAGAAACACACACACATATATATATATTAT [CACACA_site4140],11.3
9,TATTTTTATATATAATCACACATTGGAATGTTCTAA [CACACA_site5540],9.6
10,ATAAATGATAGTAAAAGTACACAAAATGTTTTAAAA [XGTACX_site1623],9.77
11,GCACGAAACAATGTATATATATATATATATATATAT [GTGCAC_negctrl_site412],9.9
12,TTCTTTATGGAAGTGTAAAAAAAGAAATACTTTTTT [CACACA_negctrl_site915],9.32
13,TTTTTTTTTTTGGTTACACACATTTGTATATTCTCA [CACACA_site134],9.89
14,CATATTAATACAGAATGTACGGATAACAAACTGTTT [XGTACX_site7935],9.63
15,ATAATTATATGATGAGTGCACAATAAAAATATCGTT [GTGCAC_site9920],9.81
16,GGTCATCATCGGTATTGTACAAAAATGTGAAAATTA [XGTACX_site639],9.52
17,TTTTATTTAGGAGGTGCATGTAATACGGAACATAAT [TGCATGCA_site827],9.55
18,CCATAACTCCTATGCACACATAAATATTACAGAGAT [CACACA_site5984],9.81
19,TTTGATTTTAATGTGTGTACACATTTATTTATATAA [XGTACX_site4806],9.75
20,GATTTATATTTTAAAAGTACAAGTTAAAATAAAAGT [XGTACX_site7059],9.6
21,AATATAAGATTATTATGTACATAATAAATATGTATT [XGTACX_site4773],9.71
22,ATATAAGTATAATTATGTACTTATACTTATATAAAT [XGTACX_site5585],9.57
23,ATATAATATCTGTATACACACATATTATATAATATT [CACACA_site5940],9.91
24,TTTTGAGAAAAAATAAAATAATAAATAAAAATACAT [XGTACX_negctrl_site66],9.57
